{"source": "paper PMC11995724", "about": "“Antibiotic target discovery by integrated phenotypic and activity-based profiling of electrophilic fragments” (Cell chemical biology, 2025)", "note": "About 75 (2%) of roughly 3,200 compounds showed an effect of 50% or more. The list shows a part of the results."}
{"test_system": "T1, S. aureus MSSA476", "T1 construct": "MSSA476", "set-up": "species or system S. aureus MSSA476 (TSB) or V. cholerae SAD30 (LB); 384-well bacterial growth screen at 25 uM, OD600 relative to DMSO control", "conditions": "relative growth, OD600, TSB; 25 µM; inhibitor", "units": {"% of control remaining": "%"}}
{"smiles": "O=C(CCl)NC1COc2ncccc21", "note": "(centres unmarked) [7-F10, 2-chloro-N-{2H,3H-furo[2,3-b]pyridin-3-yl}acetamide]", "% of control remaining": 98.5871}
{"smiles": "CC(Cl)C(=O)N1CCN(c2nc3ccccc3o2)C(C)C1", "note": "(centres unmarked) [7-K22, 1-[4-(1,3-benzoxazol-2-yl)-3-methylpiperazin-1-yl]-2-chloropropan-1-one]", "% of control remaining": 90.4239}
{"smiles": "CC(Cl)C(=O)Nc1cc(Cl)ccc1Cl", "note": "(centres unmarked) [6-A15, 2-chloro-N-(2,5-dichlorophenyl)propanamide]", "% of control remaining": 97.6585}
{"smiles": "CCOc1ccc(S(=O)(=O)N2CCN(C(=O)CCl)CC2)cc1", "note": "[4-P15, 2-chloro-1-[4-(4-ethoxybenzenesulfonyl)piperazin-1-yl]ethan-1-one]", "% of control remaining": 109.004}
{"smiles": "CC(Cl)C(=O)N1CCN(Cc2nnnn2-c2ccccc2)CC1", "note": "(centres unmarked) [7-N05, 2-chloro-1-{4-[(1-phenyl-1H-1,2,3,4-tetrazol-5-yl)methyl]piperazin-1-yl}propan-1-one]", "% of control remaining": 103.925}
{"smiles": "CC(Cl)C(=O)N1CCCN(c2ccc(-c3ccccc3)nn2)CC1", "note": "(centres unmarked) [7-L15, 2-chloro-1-[4-(6-phenylpyridazin-3-yl)-1,4-diazepan-1-yl]propan-1-one]", "% of control remaining": 85.7143}
{"smiles": "C=CC(=O)Nc1ccccc1-c1nnnn1C", "note": "[1-M05, N-[2-(1-methyl-1H-1,2,3,4-tetrazol-5-yl)phenyl]prop-2-enamide]", "% of control remaining": 108.659}
{"smiles": "N#CC(=Cc1c(C2CC2)nc2sccn12)C(=O)NC1CCCCC1", "note": "[9-H18, 2-cyano-N-cyclohexyl-3-{6-cyclopropylimidazo[2,1-b][1,3]thiazol-5-yl}prop-2-enamide]", "% of control remaining": 95.8801}
{"smiles": "O=C(CCl)Cc1ccc(F)cc1Cl", "note": "[10-E19, 1-chloro-3-(2-chloro-4-fluorophenyl)propan-2-one]", "% of control remaining": 114.687}
{"smiles": "C=CC(=O)Nc1cc(OC)ccc1C(=O)N(C)OC", "note": "[1-J14, N,4-dimethoxy-N-methyl-2-(prop-2-enamido)benzamide]", "% of control remaining": 111.824}
{"smiles": "O=C(CCl)NCC(c1ccccc1)c1c[nH]c2ccccc12", "note": "(centres unmarked) [6-C08, 2-chloro-N-[2-(1H-indol-3-yl)-2-phenylethyl]acetamide]", "% of control remaining": 73.4146}
{"smiles": "O=C(CCl)Nc1ccc(OCc2ccccc2)cc1", "note": "[6-K07, N-[4-(benzyloxy)phenyl]-2-chloroacetamide]", "% of control remaining": 98}
{"smiles": "O=C(CCl)Nc1cc(-n2cnnn2)ccc1Cl", "note": "[6-A05, 2-chloro-N-[2-chloro-5-(1H-1,2,3,4-tetrazol-1-yl)phenyl]acetamide]", "% of control remaining": 78.1951}
{"smiles": "C=CC(=O)NCc1nc(C2CC2)oc1C", "note": "[2-P13, N-[(2-cyclopropyl-5-methyl-1,3-oxazol-4-yl)methyl]prop-2-enamide]", "% of control remaining": 84.9434}
{"smiles": "CCN(C(=O)CCl)C1CCCCC1", "note": "[5-D11, 2-chloro-N-cyclohexyl-N-ethylacetamide]", "% of control remaining": 111.111}
{"smiles": "Cc1nnnn1CCNC(=O)C(C)Cl", "note": "(centres unmarked) [7-A19, 2-chloro-N-[2-(5-methyl-1H-1,2,3,4-tetrazol-1-yl)ethyl]propanamide]", "% of control remaining": 106.122}
{"smiles": "CC(Cl)C(=O)N1CCc2ncccc2C1", "note": "(centres unmarked) [7-I19, 2-chloro-1-(5,6,7,8-tetrahydro-1,6-naphthyridin-6-yl)propan-1-one]", "% of control remaining": 82.8885}
{"smiles": "CC(Cl)C(=O)Nc1ccc([N+](=O)[O-])cc1", "note": "(centres unmarked) [4-I18, 2-chloro-N-(4-nitrophenyl)propanamide]", "% of control remaining": 122.344}
{"smiles": "Cc1cccc(NC(=O)[C@@H]2CCCN2C(=O)CCl)n1", "note": "[5-C06, (2S)-1-(2-chloroacetyl)-N-(6-methylpyridin-2-yl)pyrrolidine-2-carboxamide]", "% of control remaining": 115.118}
{"smiles": "C=CC(=O)N1CCC(C(=O)NCCO)CC1", "note": "[3-C18, N-(2-hydroxyethyl)-1-(prop-2-enoyl)piperidine-4-carboxamide]", "% of control remaining": 103.439}
{"smiles": "CCOC(=O)c1ccc(NC(=O)CCl)cc1", "note": "[4-E17, ethyl 4-(2-chloroacetamido)benzoate]", "% of control remaining": 118.152}
{"smiles": "C=CC(=O)Nc1cc(C)nn1-c1ccccc1F", "note": "[2-C15, N-[1-(2-fluorophenyl)-3-methyl-1H-pyrazol-5-yl]prop-2-enamide]", "% of control remaining": 108.616}
{"smiles": "COCCNC(=O)C(C#N)=Cc1c(F)cccc1Cl", "note": "[8-O21, 3-(2-chloro-6-fluorophenyl)-2-cyano-N-(2-methoxyethyl)prop-2-enamide]", "% of control remaining": 108.216}
{"smiles": "Cc1nc2cc(NC(=O)C(C#N)=Cc3ccco3)ccc2n1C", "note": "[9-B18, 2-cyano-N-(1,2-dimethyl-1H-1,3-benzodiazol-5-yl)-3-(furan-2-yl)prop-2-enamide]", "% of control remaining": 98.8764}
{"smiles": "CCSc1nnc(NC(=O)CCl)s1", "note": "[5-N22, 2-chloro-N-[5-(ethylsulfanyl)-1,3,4-thiadiazol-2-yl]acetamide]", "% of control remaining": 123.497}
{"smiles": "Cl.O=C(CCl)N1CCN(CCOc2ccccc2)CC1", "note": "[4-H14, 2-chloro-1-[4-(2-phenoxyethyl)piperazin-1-yl]ethan-1-one hydrochloride]", "% of control remaining": 89.1853}
{"smiles": "COc1cc(Cl)c(C)cc1NC(=O)C(C#N)=CC=Cc1ccccc1", "note": "[8-A21, N-(4-chloro-2-methoxy-5-methylphenyl)-2-cyano-5-phenylpenta-2,4-dienamide]", "% of control remaining": 102.905}
{"smiles": "C=CC(=O)NCc1ccnc(N2CCOCC2)c1", "note": "[1-C09, N-{[2-(morpholin-4-yl)pyridin-4-yl]methyl}prop-2-enamide]", "% of control remaining": 107.253}
{"smiles": "CC(Cl)C(=O)Nc1cc(C(C)(C)C)nn1-c1ccccc1", "note": "(centres unmarked) [4-H11, N-(3-tert-butyl-1-phenyl-1H-pyrazol-5-yl)-2-chloropropanamide]", "% of control remaining": 101.382}
{"smiles": "COc1ccc(CCN2C(=O)C=CC2=O)cc1", "note": "[10-A05, 1-[2-(4-methoxyphenyl)ethyl]-2,5-dihydro-1H-pyrrole-2,5-dione]", "% of control remaining": 135.625}
{"smiles": "C=CC(=O)NCc1ccc(N2CCCC(C(N)=O)C2)cc1", "note": "(centres unmarked) [1-P19, 1-{4-[(prop-2-enamido)methyl]phenyl}piperidine-3-carboxamide]", "% of control remaining": 109.714}
{"smiles": "O=C(Nc1ccc(F)cc1)N1CCSSCC1", "note": "[10-D21, N-(4-fluorophenyl)-1,2,5-dithiazepane-5-carboxamide]", "% of control remaining": 105.313}
{"smiles": "O=C(CCl)NC(c1ccc(F)c(Cl)c1)C(F)(F)F", "note": "(centres unmarked) [7-D16, 2-chloro-N-[1-(3-chloro-4-fluorophenyl)-2,2,2-trifluoroethyl]acetamide]", "% of control remaining": 84.1444}
{"smiles": "O=C(c1ccccc1)c1cc(Cl)ccc1N1C(=O)C=CC1=O", "note": "[10-M16, 1-(2-benzoyl-4-chlorophenyl)-2,5-dihydro-1H-pyrrole-2,5-dione]", "% of control remaining": 128.125}
{"smiles": "C=CC(=O)N1CCC(C(=O)Oc2ccc(NC(C)=O)cc2)CC1", "note": "[3-M16, 4-acetamidophenyl 1-(prop-2-enoyl)piperidine-4-carboxylate]", "% of control remaining": 96.8219}
{"smiles": "COc1ccc([N+](=O)[O-])cc1N1C(=O)C=CC1=O", "note": "[10-P13, 1-(2-methoxy-5-nitrophenyl)-2,5-dihydro-1H-pyrrole-2,5-dione]", "% of control remaining": 94.375}
{"smiles": "C=CC(=O)N1CCN(Cc2cc(=O)n3ccsc3n2)CC1", "note": "[3-F22, 7-{[4-(prop-2-enoyl)piperazin-1-yl]methyl}-5H-[1,3]thiazolo[3,2-a]pyrimidin-5-one]", "% of control remaining": 101.698}
{"smiles": "C=CC(=O)NCCN(C)S(=O)(=O)c1cccs1", "note": "[2-A09, N-[2-(N-methylthiophene-2-sulfonamido)ethyl]prop-2-enamide]", "% of control remaining": 155.962}
{"smiles": "CCN(CC)C(=O)c1cccc(NC(=O)CCl)c1", "note": "[5-I03, 3-(2-chloroacetamido)-N,N-diethylbenzamide]", "% of control remaining": 102.732}
{"smiles": "O=C(CCl)NCCc1cccc(Cl)c1", "note": "[5-O05, 2-chloro-N-[2-(3-chlorophenyl)ethyl]acetamide]", "% of control remaining": 98.3607}
{"smiles": "CCN(Cc1ccc(C#N)cc1F)C(=O)CCl", "note": "[5-H08, 2-chloro-N-[(4-cyano-2-fluorophenyl)methyl]-N-ethylacetamide]", "% of control remaining": 105.282}
{"smiles": "Cc1ccc(Cl)c(NC(=O)CCl)c1Cl", "note": "[4-D10, 2-chloro-N-(2,6-dichloro-3-methylphenyl)acetamide]", "% of control remaining": 102.144}
{"smiles": "CC(NC(=O)C(C#N)=Cc1ccco1)c1cccnc1", "note": "(centres unmarked) [9-K03, 2-cyano-3-(furan-2-yl)-N-[1-(pyridin-3-yl)ethyl]prop-2-enamide]", "% of control remaining": 94.0824}
{"smiles": "CC(Cl)C(=O)NC1CCC(C)(C)c2ccccc21", "note": "(centres unmarked) [6-H21, 2-chloro-N-(4,4-dimethyl-1,2,3,4-tetrahydronaphthalen-1-yl)propanamide]", "% of control remaining": 85.3659}
{"smiles": "N#CC(=Cc1cccc2c1OCO2)C(=O)Nc1cccc2ccccc12", "note": "[8-K12, 3-(1,3-dioxaindan-4-yl)-2-cyano-N-(naphthalen-1-yl)prop-2-enamide]", "% of control remaining": 100.581}
{"smiles": "C=CC(=O)N1CCCc2c(OCC(N)=O)cccc21", "note": "[3-D22, 2-{[1-(prop-2-enoyl)-1,2,3,4-tetrahydroquinolin-5-yl]oxy}acetamide]", "% of control remaining": 126.426}
{"smiles": "O=C(CCl)c1ccc2c(c1)-c1ccccc1C2", "note": "[10-H17, 2-chloro-1-(9H-fluoren-3-yl)ethan-1-one]", "% of control remaining": 1.875}
